Measurements reported in a compilation of properties of binary mixtures (doi:10.2298/jsc190413047v).
Some of these densities may be calculated back from excess volumes.

Test: xn = mol fraction of the nth substance listed

CCCCn1cc[n+](C)c1.FC(F)(F)C(F)(F)[P-](F)(F)(F)(C(F)(F)C(F)(F)F)C(F)(F)C(F)(F)F + CNC=O
mass density [kg/m3], 100 kPa
Settings | 293.15 K | 298.15 K | 303.15 K | 308.15 K | 313.15 K | 318.15 K | 323.15 K
x1 = 0.0177 | 1063.7 | – | 1054.5 | 1049.8 | – | 1040.3 | 1035.4
x2 = 0.0972 | 1618.6 | 1612.7 | 1606.9 | 1601.1 | 1595.2 | 1589.4 | 1583.4
x2 = 0.1852 | 1605.6 | 1599.8 | 1594 | 1588.1 | 1582.3 | 1576.4 | 1570.4
x2 = 0.3184 | 1581.8 | 1575.9 | 1570.1 | 1564.2 | 1558.3 | 1552.4 | –
x2 = 0.3957 | 1564.5 | 1558.7 | – | 1547 | 1541.1 | 1535.2 | –
x2 = 0.4503 | – | – | 1538.8 | 1532.9 | 1526.9 | 1521.1 | 1515.1
x2 = 0.5042 | – | 1528.7 | 1522.9 | – | 1511.1 | 1505.2 | 1499.2
x2 = 0.585 | 1505.4 | 1499.5 | 1493.7 | 1487.8 | 1482 | – | –
x2 = 0.7032 | 1446.7 | 1441 | 1435.2 | 1429.5 | 1423.7 | 1417.8 | –
x2 = 0.8 | 1373.8 | 1368.2 | 1362.6 | 1357 | – | 1345.6 | 1339.8
x2 = 0.8505 | 1320.2 | 1314.7 | 1309.2 | 1303.7 | 1298.1 | 1292.5 | 1287
x2 = 0.8997 | – | 1245.5 | 1240.2 | 1234.9 | 1229.6 | 1224.2 | 1218.8
x2 = 0.9336 | 1188 | 1183.2 | 1178 | 1172.9 | 1167.8 | 1162.7 | 1157.4
x2 = 0.9504 | 1150.6 | 1145.9 | 1141 | 1136 | – | 1125.9 | –

O=C1CCCO1 + CCCn1cc[n+](C)c1C.O=S(=O)([N-]S(=O)(=O)C(F)(F)F)C(F)(F)F
Settings | mass density [kg/m3]
293.15 K, 100 kPa, x1 = 1 | 1129.5

O=C1CCCO1 + CCCC[N+]1(C)CCCC1.O=S(=O)([N-]S(=O)(=O)C(F)(F)F)C(F)(F)F
100 kPa, x1 = 1
Settings | mass density [kg/m3]
293.15 K | 1129.2
298.15 K | 1124.3
303.15 K | 1119.3
308.15 K | 1114.3
313.15 K | 1109.2
318.15 K | 1104.1
323.15 K | 1098.9

O=C1CCCO1 + FC(S(=O)(=O)[N-]S(=O)(=O)C(F)(F)F)(F)F.C(CCC)N1C(=[N+](C=C1)C)C
Settings | mass density [kg/m3]
293.15 K, 100 kPa, x1 = 1 | 1129.5

CCCCCCCCn1cc[n+](C)c1.O=S(=O)([N-]S(=O)(=O)C(F)(F)F)C(F)(F)F + O=C1CCCO1
Settings | mass density [kg/m3]
313.15 K, 100 kPa, x2 = 0.7994 | 1218.5

O=C1CCCO1 + CC[n+]1ccn(C)c1C.O=S(=O)([N-]S(=O)(=O)C(F)(F)F)C(F)(F)F
Settings | mass density [kg/m3]
293.15 K, 100 kPa, x1 = 1 | 1129.5

CCCCn1cc[n+](C)c1.FC(F)(F)C(F)(F)[P-](F)(F)(F)(C(F)(F)C(F)(F)F)C(F)(F)C(F)(F)F + CCNC=O
mass density [kg/m3], 100 kPa
Settings | 293.15 K | 298.15 K | 303.15 K | 308.15 K | 313.15 K | 318.15 K | 323.15 K
x2 = 0.0583 | 1620.2 | – | – | – | 1597 | 1591.1 | –
x2 = 0.1163 | 1609.3 | 1603.5 | 1597.8 | 1591.9 | – | 1580.1 | 1574.2
x2 = 0.2108 | – | 1584 | 1578.3 | 1572.5 | 1566.6 | 1560.7 | 1554.8
x2 = 0.2983 | 1569.1 | 1563.3 | – | 1551.7 | 1545.9 | 1540 | –
x2 = 0.3946 | 1541.8 | 1535.9 | 1530.3 | 1524.5 | – | 1512.8 | 1507
x2 = 0.5064 | 1501.9 | 1496.2 | – | 1484.8 | 1479 | 1473.2 | –
x2 = 0.5981 | 1459.7 | 1454.1 | 1448.5 | 1442.8 | 1437.1 | 1431.4 | 1425.7
x2 = 0.6987 | – | – | 1387.6 | 1382 | 1376.4 | 1370.8 | 1365.4
x2 = 0.7995 | 1312.4 | 1307 | 1301.7 | 1296.3 | 1290.9 | 1285.7 | 1280.5
x2 = 0.8981 | – | – | 1173.8 | 1168.9 | 1163.9 | 1159 | 1154.1
x2 = 0.9298 | 1126.6 | 1121.8 | 1117 | – | – | 1102.8 | –
x2 = 0.9654 | 1048 | 1043.5 | – | 1034.6 | – | 1025.5 | –

CCCCN(C=O)CCCC + CCCCn1cc[n+](C)c1.FC(F)(F)C(F)(F)[P-](F)(F)(F)(C(F)(F)C(F)(F)F)C(F)(F)C(F)(F)F
mass density [kg/m3], 100 kPa
Settings | 293.15 K | 298.15 K | 303.15 K | 308.15 K | 313.15 K | 318.15 K | 323.15 K
x1 = 0.053 | 1607.8 | 1602.1 | – | 1590.5 | – | 1578.9 | 1573
x1 = 0.0949 | 1589.6 | 1583.8 | 1578.2 | 1572.4 | 1566.6 | 1560.9 | –
x1 = 0.1951 | – | 1538.4 | 1532.9 | 1527.1 | 1521.4 | 1515.8 | 1510
x1 = 0.2975 | 1493.2 | 1487.7 | 1482.3 | 1476.7 | 1471.1 | – | 1459.8
x1 = 0.4051 | 1433 | 1427.7 | 1422.4 | 1417 | 1411.5 | 1406.1 | –
x1 = 0.4999 | 1373.1 | – | 1362.8 | 1357.5 | 1352.1 | 1346.8 | 1341.4
x1 = 0.5987 | – | 1297.4 | 1292.4 | 1287.3 | 1282.2 | 1277 | 1271.8
x1 = 0.6947 | 1224.4 | 1219.6 | 1214.7 | 1209.8 | 1204.9 | 1200 | 1194.9
x1 = 0.8017 | – | 1119 | 1114.4 | 1109.8 | 1105.2 | 1100.6 | 1095.7
x1 = 0.8491 | 1073.2 | – | 1064.3 | 1059.9 | 1055.3 | 1050.8 | 1046.1
x1 = 0.9092 | 1002.8 | 998.6 | 994.4 | 990 | – | 981.3 | 976.8
x1 = 0.9306 | 975.8 | 971.6 | 967.4 | – | – | 954.5 | 950.1
x1 = 0.9656 | 928.7 | 924.6 | – | 916.5 | 912.3 | 908 | –

CC1COC(=O)O1 (centres undefined) + CCCC[n+]1ccn(C)c1.O=S(=O)([N-]S(=O)(=O)C(F)(F)F)C(F)(F)F
101 kPa
Settings | mass density [kg/m3]
298.15 K, x1 = 0.3098 | 1409.5
298.15 K, x1 = 0.4161 | 1396.5
308.15 K, x1 = 0.5996 | 1355.5
313.15 K, x1 = 0.4979 | 1369.5

CCCC[N+]1(C)CCCC1.FC(F)(F)C(F)(F)[P-](F)(F)(F)(C(F)(F)C(F)(F)F)C(F)(F)C(F)(F)F + CN(C)C=O
Settings | mass density [kg/m3]
323.15 K, 101 kPa, x2 = 0.1147 | 1536.5

CC1CC(=O)O1 (centres undefined) + CCCC[n+]1ccn(C)c1.O=S(=O)([N-]S(=O)(=O)C(F)(F)F)C(F)(F)F
100 kPa
Settings | mass density [kg/m3]
293.15 K, x1 = 0.8474 | 1207.5
323.15 K, x1 = 0.186 | 1385.5

CCCC[N+]1(C)CCCC1.O=S(=O)([N-]S(=O)(=O)C(F)(F)F)C(F)(F)F + O=C1CCCO1
mass density [kg/m3], 100 kPa
Settings | 293.15 K | 298.15 K | 303.15 K | 308.15 K | 313.15 K | 318.15 K | 323.15 K
x2 = 0 | 1399 | 1394.6 | 1390 | 1385.5 | 1380.9 | 1376.3 | 1371.6
x2 = 0.0551 | 1394.4 | 1390 | 1385.5 | 1381 | 1376.4 | 1371.8 | –
x2 = 0.1124 | 1389.7 | 1385.3 | 1380.9 | 1376.4 | 1371.8 | 1367.2 | 1362.5
x2 = 0.2001 | – | 1377.8 | 1373.3 | 1368.8 | 1364.2 | 1359.5 | 1354.8
x2 = 0.2625 | 1376.1 | – | 1367.2 | 1362.7 | 1358 | 1353.4 | 1348.7
x2 = 0.3443 | 1367.1 | 1362.6 | 1358.1 | 1353.4 | 1348.8 | 1344.1 | 1339.3
x2 = 0.401 | 1359.8 | – | 1350.7 | 1346 | 1341.4 | 1336.6 | –
x2 = 0.4486 | 1352.9 | 1348.3 | 1343.7 | 1339 | 1334.4 | 1329.6 | –
x2 = 0.5079 | 1343.1 | 1338.5 | 1333.8 | 1329.2 | – | 1319.7 | 1314.9
x2 = 0.5985 | – | 1320.4 | 1315.7 | – | – | 1301.4 | 1296.5
x2 = 0.6545 | 1311.4 | 1306.8 | – | – | – | 1287.7 | 1282.8
x2 = 0.6946 | 1300.2 | 1295.6 | 1290.8 | 1286.1 | 1281.3 | 1276.4 | –
x2 = 0.7593 | 1279 | 1274.3 | 1269.5 | 1264.7 | 1259.9 | 1254.9 | 1250
x2 = 0.8052 | 1260.8 | 1256 | – | 1246.4 | 1241.6 | 1236.6 | 1231.6
x2 = 0.9043 | 1208.5 | 1203.7 | 1198.8 | 1193.9 | – | 1183.9 | 1178.8
x2 = 0.9509 | 1174.7 | 1169.8 | – | 1160 | 1154.9 | 1149.9 | –
x2 = 0.9746 | 1154.3 | 1149.4 | 1144.4 | 1139.4 | – | 1129.3 | 1124.1
